Experimental data reported in the supplement of paper PMC4996465.
Viability of KB3-1 and Nalm-6 cells after 48 h of drug alone (CellTiter-Glo), 11 doses over about 4.5 log units. % of DMSO wells, lower = more cell loss; AC50 from the fitted curve, lower = more potent. No active / inactive call. Nalm-6 was screened in two runs. AC50 is listed only for well-fitted inhibitory curves. KB3-1 is a HeLa-derived carcinoma line, Nalm-6 a B-cell precursor leukaemia line.

Key:
KB3-1 [1] = assay: viability (% of DMSO control); higher = more viable cells
Method: (§1)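 Eleven-dose screen of the NCATS MIPE 3 library on cells without co-treatment; CellTiter-Glo after 48 h, as % of DMSO wells.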

Nalm-6 [2] = assay: as above
Method: as §1

KB3-1 [3] = assay: log AC50 of viability decrease (48 h) (log10 M); higher = less potent
Method: (§2)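 Eleven-dose screen of the NCATS MIPE 3 library on cells without co-treatment; CellTiter-Glo after 48 h. AC50 from the curve fit; only inhibitory curves of the better fit classes are listed.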

Nalm-6 [4] = assay: as above
Method: as §2

Structure (SMILES)	viability (KB3-1 [1]; 0.00078 µM)	viability (KB3-1 [1]; 0.00234 µM)	viability (KB3-1 [1]; 0.00702 µM)	viability (KB3-1 [1]; 0.0211 µM)	viability (KB3-1 [1]; 0.0632 µM)	viability (KB3-1 [1]; 0.19 µM)	viability (KB3-1 [1]; 0.569 µM)	viability (KB3-1 [1]; 1.71 µM)	viability (KB3-1 [1]; 5.12 µM)	viability (KB3-1 [1]; 15.4 µM)	viability (KB3-1 [1]; 46.1 µM)	viability (Nalm-6 [2]; run: 1, 0.00078 µM)	viability (Nalm-6 [2]; run: 1, 0.00234 µM)	viability (Nalm-6 [2]; run: 1, 0.00702 µM)	viability (Nalm-6 [2]; run: 1, 0.0211 µM)	viability (Nalm-6 [2]; run: 1, 0.0632 µM)	viability (Nalm-6 [2]; run: 1, 0.19 µM)	viability (Nalm-6 [2]; run: 1, 0.569 µM)	viability (Nalm-6 [2]; run: 1, 1.71 µM)	viability (Nalm-6 [2]; run: 1, 5.12 µM)	viability (Nalm-6 [2]; run: 1, 15.4 µM)	viability (Nalm-6 [2]; run: 1, 46.1 µM)	viability (Nalm-6 [2]; run: 2, 0.00078 µM)	viability (Nalm-6 [2]; run: 2, 0.00234 µM)	viability (Nalm-6 [2]; run: 2, 0.00702 µM)	viability (Nalm-6 [2]; run: 2, 0.0211 µM)	viability (Nalm-6 [2]; run: 2, 0.0632 µM)	viability (Nalm-6 [2]; run: 2, 0.19 µM)	viability (Nalm-6 [2]; run: 2, 0.569 µM)	viability (Nalm-6 [2]; run: 2, 1.71 µM)	viability (Nalm-6 [2]; run: 2, 5.12 µM)	viability (Nalm-6 [2]; run: 2, 15.4 µM)	viability (Nalm-6 [2]; run: 2, 46.1 µM)	log AC50 of viability decrease (KB3-1 [3])	log AC50 of viability decrease (Nalm-6 [4]; run: 1)	log AC50 of viability decrease (Nalm-6 [4]; run: 2)
CC(C)C[C@@H](C(=O)N[C@H](C(=O)OC1CCCC1)c1ccccc1)[C@H](O)C(=O)NO [Tosedostat]	95.4%	92.2%	101%	102%	93.6%	87.5%	86.8%	69%	71%	56.1%	4.82%	91.6%	88.2%	90.5%	95.1%	94.9%	99.9%	101%	99.6%	95.3%	79.7%	4%	78.7%	93.7%	91.6%	97.7%	98.3%	98.5%	102%	93.9%	92.8%	81.6%	3.63%	-4.78	-4.63	-4.63
Cc1cc(Nc2cc(N3CCN(C)CC3)nc(Sc3ccc(NC(=O)C4CC4)cc3)n2)[nH]n1 [Tozasertib]	97.3%	100%	94.3%	91.8%	94.3%	93.3%	90.2%	90%	81%	68.2%	48.4%	84.7%	87.8%	64.8%	64.1%	53.6%	57.8%	50.4%	48.8%	50.6%	38%	4.83%	95.5%	93.5%	78.1%	74.1%	59.8%	65.2%	60.6%	55.9%	54.8%	33%	5.71%	-4.73	-5.13	-5.13
CC(C)[C@]12O[C@H]1[C@@H]1O[C@]13[C@]1(O[C@H]1C[C@H]1C4=C(CC[C@@]13C)C(=O)OC4)[C@@H]2O [Triptolide]	108%	99.6%	67.4%	15.5%	15.9%	19.2%	18.5%	20.5%	21.3%	19.8%	22.4%	87.9%	82%	31%	6.57%	18.3%	24.3%	21.3%	19.3%	20.2%	16.9%	14.8%	102%	92.5%	36.8%	6.17%	18.3%	35.8%	32.3%	31.6%	25.1%	32.2%	24.6%	-8.13	-8.33	-8.38
